# Experimental data reported in PubChem BioAssay AID488969 (Vanderbilt High Throughput Screening Facility, 2010).
# Over roughly 110,000 compounds, “z-score” has its median near -0.1; the highest 2% begin near 2. The list shows a part of the results. Active and inactive are the calls of the source.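 Rule for the calls: active = z-score in the third read window above 3 or below -3; inactive = the rest.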
# Biological target: Metabotropic glutamate receptor 8 (Rattus norvegicus) (UniProt P70579)
# Assay: rat mGluR8 modulators via GIRK flux, primary screen, cell-based, thallium flux, HTS (AID 488969)
# Conditions: HEK293 rat mGluR8, GIRK (G protein-gated inwardly rectifying potassium channel) thallium flux, FluoZin2; at 10 µM; stronger effect = higher value; submaximal glutamate (EC20) added with thallium
# UniProt P70579, sequence (P70579 whole entry, looked up): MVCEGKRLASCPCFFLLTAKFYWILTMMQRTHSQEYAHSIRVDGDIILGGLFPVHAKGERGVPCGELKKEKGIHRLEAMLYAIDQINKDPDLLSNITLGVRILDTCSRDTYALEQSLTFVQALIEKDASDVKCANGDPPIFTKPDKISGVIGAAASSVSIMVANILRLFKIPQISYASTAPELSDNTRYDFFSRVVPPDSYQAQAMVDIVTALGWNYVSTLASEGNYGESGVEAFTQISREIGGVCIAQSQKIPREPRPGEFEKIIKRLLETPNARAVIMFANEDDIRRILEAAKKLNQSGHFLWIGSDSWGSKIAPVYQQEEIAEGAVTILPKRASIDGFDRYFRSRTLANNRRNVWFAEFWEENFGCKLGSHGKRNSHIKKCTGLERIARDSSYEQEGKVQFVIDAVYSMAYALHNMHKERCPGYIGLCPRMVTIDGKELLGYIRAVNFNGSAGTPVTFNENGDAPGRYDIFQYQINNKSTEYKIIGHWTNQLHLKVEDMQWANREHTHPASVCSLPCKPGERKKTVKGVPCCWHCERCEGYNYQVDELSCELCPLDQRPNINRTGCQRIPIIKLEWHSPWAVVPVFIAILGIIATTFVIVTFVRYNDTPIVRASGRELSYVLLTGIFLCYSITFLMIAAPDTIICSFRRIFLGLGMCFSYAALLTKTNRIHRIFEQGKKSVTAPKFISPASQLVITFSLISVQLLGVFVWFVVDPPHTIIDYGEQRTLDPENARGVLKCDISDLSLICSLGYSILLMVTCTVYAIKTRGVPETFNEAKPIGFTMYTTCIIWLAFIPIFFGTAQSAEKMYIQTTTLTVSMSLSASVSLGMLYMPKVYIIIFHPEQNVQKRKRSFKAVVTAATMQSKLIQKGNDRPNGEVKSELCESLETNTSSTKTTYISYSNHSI
row,SMILES,z-score
1,OCc1ccccc1N=c1ssnc1Cl,-0.577
2,CCOc1cc(CNCC2CCCO2)cc(Br)c1OCC(N)=O (stereo unspecified),-0.0404
3,CCOC(=O)CCc1cccc2c1CCC2=O,1.03
4,Cc1cc(NC(=O)c2ccc3nc(C)sc3c2)no1,0.132
5,Cc1cc2nc(CCN(Cc3cccnc3)C(=S)Nc3ccc(F)cc3)[nH]c2cc1C,0.0101
6,O=C(COc1ccc(-n2cnnn2)cc1)NCCc1ccc(F)cc1,-0.496
7,O=C(O)C1CC(=O)N(c2ccc(OCc3ccc(Cl)cc3Cl)cc2)C1 (stereo unspecified),-0.228
8,O=[N+]([O-])c1ccc(Cl)c(/C=N/N2CCN(c3ccccc3)CC2)c1,-0.188
9,NC(=O)c1c(NC(=O)CSc2nnc(Cc3ccccc3)n2Cc2ccco2)sc2c1CCC2,-1.04
10,Cc1cc(NCc2ccco2)n2ncnc2n1,-0.39
11,O=C(NC1(C(F)(F)F)C(=O)Nc2c1c(=O)[nH]c(=O)n2-c1ccccc1)c1cccnc1 (stereo unspecified),0.783
12,O=C(COc1ccccc1F)N/N=C1\CCCc2ccccc21,0.596
13,CC(C)NC(=O)C1CC=CCC1C(=O)O (stereo unspecified),-0.0507
14,Cc1ccc(-c2cc(C(F)(F)F)n3nc(C(=O)Nc4c(C)n(C)n(-c5ccccc5)c4=O)cc3n2)cc1,-0.134
15,Cc1ccc(NC2=NC(=S)N(CC#N)C23CCCCC3)cc1,active: 3.98
16,CCC(C)(C(=O)NC1CCCCC1)N(CC1CCCO1)C(=O)c1ccccn1 (stereo unspecified),0.0424
17,Cc1ccc(CCNC(=O)C2CCN(S(=O)(=O)c3cccc4nsnc34)CC2)cc1,0.195
18,COc1ccc(C(=O)NCC(c2cccnc2)N2CCN(c3ccccc3OC)CC2)cc1OC (stereo unspecified),-0.178
19,COc1cc2c3c(c1OC)C1(C=CC(=O)C=C1)CC3N(C(C)=O)CC2 (stereo unspecified),-0.282
20,C/C(CC(=O)Nc1ccc(Cl)c(C(F)(F)F)c1)=N\NC(=O)c1ccccc1O,-0.95
21,COc1cc(OC)cc(C(=O)N[C@H](C(=O)Nc2ccccc2N2CCOCC2)C(C)C)c1,-0.263
22,CCCC(=O)Nc1ccc(Cl)c(NC(=S)NC(=O)c2cc3ccccc3o2)c1,0.00926
23,Cc1nn(-c2ccccc2)c(N2CCCC2)c1/C=N/NC(=S)Nc1ccccc1F,2.42

row,SMILES,z-score
1,CN(C)S(=O)(=O)c1ccc2c(c1)C(CC(=O)O)NC2=O (stereo unspecified),-0.0312
2,COc1ccc(OCC(=O)NNC(=O)C(=O)Nc2ccc(C)cc2)cc1,2.73
3,CCn1c(=O)c(-c2ccccc2)c(O)c2ccccc21,1.28
4,c1ccc(OCc2nnc3sc(C4COc5ccccc5O4)nn23)cc1 (stereo unspecified),0.711
5,O=C(NCC1CCCO1)C(=O)NCC(c1ccco1)N1CCN(c2ccccc2)CC1 (stereo unspecified),0.0286
6,O=C(CCn1nnc2ccccc2c1=O)NCC1CCC(C(=O)O)CC1 (stereo unspecified),-1.42
7,Cc1cc(/C=C(\C#N)c2nnc(N3CCOCC3)n2-c2ccccc2)c(C)n1-c1ccccc1,-0.52
8,NC(=O)CN1CCN(c2nc(-c3ccc(F)cc3)cs2)CC1,-0.0103
9,O=C(OCc1ccccc1)C1CCCN1C(=O)c1cccs1 (stereo unspecified),-0.219
10,O=C(CNC(=O)c1cccs1)NCC(=O)OCc1ccc(Cl)cc1Cl,0.112
11,CCOc1ccc2c(c1)sc(N)[n+]2Cc1cc(C)cc2cccnc12,0.483
12,CC(=O)N1C(=O)CC(C)N(C(C)=O)c2ccc([N+](=O)[O-])cc21 (stereo unspecified),-0.142
13,COc1ccc(/C=C/C(=O)OCc2csc(-c3ccccc3)n2)cc1OC,-0.29
14,CCCCC1(C)OC(=O)C(=Cc2ccc(N(CC)CC)cc2)C(=O)O1 (stereo unspecified),-0.0786
15,CCOc1cc(C(=O)OCC(=O)Nc2cc(C)on2)cc(OCC)c1OCC,0.309
16,CCSc1nnc(NC(=O)C2CCN(S(=O)(=O)c3ccccc3C(F)(F)F)CC2)s1,-0.565
17,CN(C)C(=O)c1ccc(NC(=O)c2cccnc2)cc1,-0.188
18,CN(C)N1C(N)=C(C#N)C(c2cccnc2)C2=C1CC(C)(C)CC2=O (stereo unspecified),-0.105
19,CCN(CC)CCN1C(=O)C(=O)/C(=C(/O)c2ccc(OC(C)C)cc2)C1c1ccncc1 (stereo unspecified),-0.15
20,O=C(c1ccc2ncsc2c1)N1CCN(c2ccc(O)cc2)CC1,-0.0382
21,CCOC(=O)C(C(=O)OCC)N(C#N)c1nc(OC)nc(N(C)C)n1,-0.465
22,Cc1ccccc1NC(=O)CN1C(=S)NC(C)(C)CC1C (stereo unspecified),-0.286
23,CS(=O)(=O)c1nc(-c2cccs2)cc(C(F)(F)F)n1,-0.742

row,SMILES,z-score
1,CCOC(=O)c1cc(NC(=O)c2cccnc2)cc(C(=O)OCC)c1,-0.81
2,N#C/C(=C/c1cn(-c2ccccc2)nc1-c1cccc(S(=O)(=O)N2CCOCC2)c1)C(=O)NCc1ccco1,-0.112
3,Cc1cc(C(=O)NNC(=S)NC(=O)/C=C/c2ccccc2Cl)n[nH]1,0.295
4,O=C(Nc1cccc(N=Cc2cc(Br)cc(Br)c2O)c1)c1ccco1,-2.03
5,COc1ccc(NC(=O)CCn2nnc(-c3ccc(C)cc3)n2)cc1OC,0.352
6,CCOC(=O)c1c(COC(=O)c2ccco2)nc2ccccc2[n+]1[O-],-0.168
7,Cc1nc(N2CCOCC2)c(C#N)c(C)c1Br,-0.151
8,CC(=O)NCCc1cc2cc(C)c(C)cc2[nH]c1=O,0.386
9,c1ccc(-n2cnc3cc(NCc4cccs4)ccc32)cc1,-0.219
10,CC(=O)Nc1ccc(OCC(=O)NC(C)C(C)C)cc1 (stereo unspecified),-0.0668
11,C=CCOC(=O)CCC(=O)Nc1cc(OC)nc(OC)n1,-0.21
12,Cc1ccc(-n2ncc3c(NNC(=O)Cc4ccccc4)ncnc32)cc1,-0.145
13,CCCC(C(=O)c1ccccc1)n1cncn1 (stereo unspecified),-0.313
14,O=C(O)CC1SC(=Nc2cccc(C(F)(F)F)c2)NC1=O (stereo unspecified),0.907
15,Cc1ccc2nc(SCc3nnc(-c4ccccc4)o3)[nH]c2c1,-0.555
16,CC1CN(C(=O)/C=C/c2ccc3c(c2)OCO3)CC(C)O1 (stereo unspecified),0.427
17,CCCN(CCC)C1=CC(=[N+]2CCCC2)CC(C)(C)C1,-0.0292
18,Cc1cccc(NC(=O)c2ccc3ccccc3n2)c1C,-0.473
19,COC(=O)CCn1[nH]c(=O)c2ccccc2c1=O,-0.0173
20,OCC(CO)(CO)N=Cc1c(O)ccc2ccccc12,0.116
21,CC(C)CCN1C(=O)CCC1(C)C(=O)NC1CCCCCCC1 (stereo unspecified),-0.383
22,O=C(Nc1nc2c(s1)CCc1ccccc1-2)c1ccco1,-0.46
23,COc1ccccc1CN1CC(C(=O)NCc2cccnc2)CC1=O (stereo unspecified),-0.331

row,SMILES,z-score
1,Cc1nn(C)c(Oc2ccc(Cl)cc2)c1C(=O)Nc1ccc(F)cc1F,-0.237
2,O=C(N/N=C/C1CC=CCC1)c1cc2ccccc2cc1O (stereo unspecified),1.78
3,O=C(OCn1nnc2ccccc2c1=O)c1cccnc1,-0.0367
4,CSc1nnc(-c2ccc(Cl)cc2Cl)o1,-0.126
5,COc1ccc(NC(=O)CO/N=C2\CCCc3nonc32)cc1,0.0532
6,Cc1cc2c(ncn2C)c(NS(=O)(=O)c2cc(Cl)ccc2Cl)c1C,0.0901
7,O=C(NCc1ccco1)C1CCCN(S(=O)(=O)c2cnc[nH]2)C1 (stereo unspecified),-0.0446
8,COc1ccccc1C(=O)ON=C1c2ccccc2-c2ccccc21,-0.416
9,COc1cccc(OCCSc2nnc3sc4ccccc4n23)c1,-1.13
10,Cc1ccc(-c2nnc(SCC(=O)CC(=O)Nc3ccccc3)n2C)cc1,-0.148
11,O=C(O)CCC(=O)N1CCc2cc(S(=O)(=O)N(CCc3ccccc3)Cc3ccccc3)ccc21,-2.33
12,CCCCCn1c(N)c(-c2nc3ccccc3s2)c2c([N+](=O)[O-])nn(C)c(=O)c21,0.0202
13,CCN(CC)CC(O)COc1ccccc1C(=O)CCc1ccccc1 (stereo unspecified),0.394
14,CCCN(CCC)CC(O)CN(c1cc([N+](=O)[O-])ccc1OC)S(=O)(=O)c1ccccc1 (stereo unspecified),-0.269
15,COc1nnc(OC)c2ccccc12,-0.152
16,CCCS(=O)(=O)N1CCN(C(=O)c2ccccc2F)CC1,0.0901
17,O=C(CSc1nnc(-c2ccccc2)c(-c2ccccc2)n1)N1CCc2ccccc21,-0.334
18,CCCC(NS(=O)(=O)c1ccc(Br)cc1)C(=O)O (stereo unspecified),0.0226
19,CN(C)c1ccc(/C=c2\sc3nc(-c4ccccc4)nn3c2=O)cc1,0.0153
20,O=C(NCc1ccco1)c1cccc(Nc2nc3ccc(Br)cc3[nH]2)c1,-0.536
21,CCOC(=O)N/N=C(/C)c1ccc([N+](=O)[O-])o1,0.141
22,CC(C)(C)N(C(=O)Cn1nnc(-c2ccc(F)cc2)n1)C(C(=O)NC1CCCC1)c1ccncc1 (stereo unspecified),-0.139
23,N=c1n(CCN2CCCCC2)c2ccccc2n1CC(O)c1ccc(Cl)c(Cl)c1 (stereo unspecified),0.264

row,SMILES,z-score
1,CCOn1c(=O)c(-c2cc3ccccc3o2)[n+]([O-])c2ccccc21,-0.0501
2,COc1cc(C2CC(=O)n3c(nc4ccccc43)S2)cc(OC)c1OC (stereo unspecified),-0.0551
3,Cc1cc(C)c2nc3nc(C)cc(C)c3c(N)c2c1,-0.702
4,CC1CCN(CCCNC(=O)c2ccc(CSCc3cccc(Cl)c3)o2)CC1,0.509
5,COc1ccc(CC(=O)NNC(=O)COc2ccc3ccccc3c2)cc1,0.022
6,O=C(NCCNC(=O)C(c1ccccc1)c1ccccc1)c1ccco1,0.54
7,Clc1ccc(-c2cn3cccnc3n2)cc1,-0.518
8,O=C(COC(=O)CCc1c[nH]c2ccccc12)NCc1ccc(Cl)cc1,-0.282
9,O=C(Cn1nnc(-c2ccccc2Cl)n1)N1CCN(S(=O)(=O)c2ccc(Cl)cc2)CC1,-0.336
10,CC(C)=C1C2CCC1C(C(=O)Nc1sc(C)c(-c3ccc(C(C)C)cc3)c1C(N)=O)C2C(=O)O (stereo unspecified),-0.64
11,Cc1ccc(Nc2nc3nonc3nc2N(C)C)cc1,-0.0276
12,COC(=O)c1[nH]c2cc(OC)ccc2c1N,-0.114
13,CCOc1ccc(CC(=O)NNC(=S)NC2CCCCC2)cc1OCC,-0.0724
14,COc1ccc(-n2nc(C(=O)Nc3ccc(OC)c(OC)c3)c3c4ccccc4n(C)c3c2=O)cc1,-0.169
15,O=C(c1ccccc1)c1ccc(N2CCOCC2)c(F)c1,-0.143
16,CCc1nc(CNC(=O)c2cc(OC)c(OC)c(OC)c2)no1,0.181
17,CN1CCN(S(=O)(=O)c2ccc(NC(=S)NC(=O)c3ccccc3)cc2)CC1,0.103
18,O=S(=O)(NCC1CCN(S(=O)(=O)c2ccccc2)CC1)c1ccccc1,-0.207
19,CC(C)CCn1c(C(C)O)nc2ccccc21 (stereo unspecified),-0.257
